Where two headings read alike, the source gives them in different places.

Data set [1] deals with the molecule itself. Put plainly: time-resolved fluorescence quenching.
Data set [2] concerns the molecule itself. In words: time-resolved fluorescence quenching. This is another data set of the same source.
Data set [3] deals with the molecule itself. Put plainly: right-angle light scattering.

B1: SRSF1Δ[…] (natural protein)
chain: not shown
Regarding B1, the stoichiometry N (usually the number of molecules, sites or subunits per partner or assembly) in data set [1] is roughly 12 molecules per microphase; in data set [2] it was roughly 50 molecules per microphase. Moreover, the “threshold concentration for microphase separation (cμ)” value in data set [3] was 0.45 ± 0.05 µM.

The record behind these values is article PMC12922802 (Cell, 2025).
